Among all 74,000 compounds or so, about 1,100 (1.5%) were called active. The inconclusive results got no clear call from the source; some entries with a clear call stand among them for comparison. The call rests on the fitted dose curve; in most records, active means well fitted inhibition curve with a large enough effect; inconclusive means small, poorly fitted or top-dose-only effect; inactive means no such curve, though single readings can be large or run the other way. No potency is given beside an inconclusive call; the fits are too rough.
Each compound was assayed against Polyunsaturated fatty acid lipoxygenase ALOX15 (Homo sapiens) (UniProt P16050) (assay: qHTS Assay for Inhibitors of 15-hLO (15-human lipoxygenase)). Conditions: purified 15hLO-1, xylenol orange hydroperoxide absorbance; activity change, negative = inhibition: at 57.1 µM (top of the series) unless noted.
Chain of UniProt P16050 (P16050 whole entry, looked up): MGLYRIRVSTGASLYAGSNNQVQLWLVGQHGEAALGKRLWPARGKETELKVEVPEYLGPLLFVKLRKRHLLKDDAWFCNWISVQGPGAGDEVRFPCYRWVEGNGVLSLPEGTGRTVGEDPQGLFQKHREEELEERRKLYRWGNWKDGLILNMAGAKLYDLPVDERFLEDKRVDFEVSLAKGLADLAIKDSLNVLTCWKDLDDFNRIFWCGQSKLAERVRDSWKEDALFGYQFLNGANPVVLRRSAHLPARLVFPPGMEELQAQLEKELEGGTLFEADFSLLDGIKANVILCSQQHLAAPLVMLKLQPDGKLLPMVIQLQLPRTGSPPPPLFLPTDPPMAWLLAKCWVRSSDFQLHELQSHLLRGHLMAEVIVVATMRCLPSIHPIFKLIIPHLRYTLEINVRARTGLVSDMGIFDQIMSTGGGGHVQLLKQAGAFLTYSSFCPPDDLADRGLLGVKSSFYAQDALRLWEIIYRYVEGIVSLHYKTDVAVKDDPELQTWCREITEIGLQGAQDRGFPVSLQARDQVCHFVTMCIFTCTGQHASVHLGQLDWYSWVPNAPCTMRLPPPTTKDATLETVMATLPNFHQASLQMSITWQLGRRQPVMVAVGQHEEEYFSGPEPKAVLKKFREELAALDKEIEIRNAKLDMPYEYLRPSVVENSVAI
Method in brief: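 Quantitative HTS in 25 mM Hepes pH 7.5 containing 0.01% Triton X-100: human 15hLO-1 at 40 nM, arachidonic acid at 50 uM, 6 min turnover. Product quantified via ferrous oxidation/xylenol orange, 573:405 nm absorbance ratio.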
For COC(=O)NC(/C(C(=O)OC)=C(\C)NCc1ccccc1)c1cccc(F)c1 (centres undefined), the Potency was inconclusive [inhibitor, single point]. With CC(OC(=O)c1nsc(Cl)c1Cl)C(=O)NCc1ccco1 (centres undefined) the “activity change, negative = inhibition” value was inactive: 0.394%. For Clc1ccccc1C(c1ccccc1)(c1ccccc1)n1ccnc1, the Potency was “inactive”. CCOC(=O)c1ccccc1NC(=O)C1COc2ccccc2O1 (centres undefined) was tested, and the “activity change, negative = inhibition” value was inactive: -10.8%. For CCN(CC)Cc1cc(CC(C(N)=O)C(N)=O)ccc1OC, the Potency was inconclusive [inhibitor, single point]. For Cc1noc(/C=C/c2ccco2)c1S(=O)(=O)N1CCC(C(=O)N2CCc3ccccc3C2)CC1, the Potency was inconclusive [inhibitor, single point]. With CCn1c(=O)cc(SCC(=O)N2CCN(c3ccccc3OC)CC2)c2ccccc21 the Potency was inconclusive [inhibitor, partial curve]. With CCC(c1nnnn1Cc1ccco1)N(Cc1cc2cc(OC)ccc2[nH]c1=O)C1CCCCC1 (centres undefined) the Potency was inconclusive [inhibitor, partial curve]. For CC1=C(C#N)C(c2ccc3ncccc3c2)C(C#N)=C(C)N1, the “activity change, negative = inhibition” value was inactive: -13.1%. In the case of O=C(CSc1ccc2nnc(-c3cccc(F)c3)n2n1)NCC1CCCO1 (centres undefined), the Potency is reported as inconclusive [inhibitor, single point]. In the case of C=C(C)C1CC=C(CN2CCC(C(=O)OCC)CC2)CC1 (centres undefined), the Potency is reported as inconclusive [inhibitor, single point]. N#Cc1cc2c(nc1SCC(=O)N1CCCCC1)CCCCC2 was tested, and the Potency was inconclusive [inhibitor, partial curve]. With Oc1c(Cl)cc(Cl)cc1Sc1cc(Cl)cc(Cl)c1O the Potency was active: 15.8 µM. With O=C1c2[nH]nc(-c3ccccc3O)c2C(c2ccc(F)cc2)N1CC1CCCO1 (centres undefined) the Potency was inconclusive [inhibitor, single point]. CCCCC(c1nnnn1CCOC)N1CCN(c2cccc(OC)c2)CC1 (centres undefined) was tested, and the Potency was inconclusive [inhibitor, partial curve]. For O=c1cc(-c2cccc(O)c2)oc2c(O)c(O)ccc12, the Potency was inconclusive [inhibitor, partial curve]. With CN(C)C(=O)c1ccc(-c2cc(-n3ccnc3)ncn2)cc1 the Potency was active: 25.1 µM. For O=C(CSc1nnc(-c2cccnc2)n1Cc1ccco1)N1c2ccccc2Sc2ccccc21, the Potency was inconclusive [inhibitor, single point]. For Cc1c(O)cccc1C(=O)N[C@@H](CSc1ccccc1)[C@H](O)CN1C[C@H]2CCCC[C@H]2C[C@H]1C(=O)NC(C)(C)C, the Potency was inconclusive [inhibitor, partial curve, poor fit]. For C=CC(C1=CC(=O)C(OC)=CC1=O)c1ccc(O)cc1 (centres undefined), the Potency was active: 25.1 µM. CS(=O)(=O)N1CCC2(CC1)CN(c1ccccn1)C2 was tested, and the “activity change, negative = inhibition” value was inactive: 9.88%. For Cc1ccc2[nH]c(=O)c(CN(CCc3ccccc3)Cc3nnnn3CC3CCCO3)cc2c1 (centres undefined), the Potency was inconclusive [inhibitor, single point]. For N#CC1=C2SCN(Cc3ccccc3)CN2C(=O)CC1c1ccccc1F (centres undefined), the Potency was inconclusive [inhibitor, full curve]. N#Cc1ccccc1-c1ccc2ncnc(NCc3cccs3)c2c1 was tested, and the Potency was inconclusive [inhibitor, partial curve]. C=CCn1c(COc2ccc(CC)cc2)nnc1SCC(=O)N(C)C1CCS(=O)(=O)C1 (centres undefined) was tested, and the Potency was inconclusive [inhibitor, full curve, poor fit]. CCOC(=O)c1cc2cc(-c3c(C(=O)OCC)oc4cc(O)cc(O)c4c3=O)ccc2o1 was tested, and the Potency was inconclusive [inhibitor, partial curve]. Cc1cnc(CNc2ncnc3ccc(-c4cccc(C#N)c4)cc23)cn1 was tested, and the “activity change, negative = inhibition” value was inactive: -5.39%. For COC1=C(OC)C(=O)c2ccccc2C1=O, the Potency was inconclusive [inhibitor, partial curve]. With Cc1cc2oc(=O)c3c(c2cc1OCc1nn[nH]n1)CCCC3 the “activity change, negative = inhibition” value was inactive: 3.53%. In the case of CCCCn1c(SCC(=O)N2CCN(c3ccccc3)CC2)nc2ccsc2c1=O, the Potency is reported as inconclusive [inhibitor, partial curve]. O=C1CSC(=S)N1Cc1cccnc1 was tested, and the Potency was inconclusive [inhibitor, partial curve]. In the case of CCCCn1nnc(NC(=O)c2sc3cc(Cl)ccc3c2Cl)n1, the Potency is reported as inconclusive [inhibitor, partial curve]. In the case of CC(=O)Nc1nc2n(n1)C(c1ccccc1)C=C(c1ccccc1)N2 (centres undefined), the Potency is reported as active: 20 µM. In the case of C=CCNc1oc(-c2cccc3ccccc23)nc1C#N, the Potency is reported as active: 0.501 µM. With Cc1ccc(OCC(O)CN2CCN(Cc3ccc4c(c3)OCO4)CC2)c(C)c1 (centres undefined) the Potency was inconclusive [inhibitor, single point]. O=C(c1csnn1)N1CCC2(CC1)CCN(C(c1ccccc1)c1ccccc1)CC2 was tested, and the “activity change, negative = inhibition” value was inactive: 0.564%. For O=C(OC1Cc2c(O)cc(O)cc2OC1c1cc(O)c(O)c(O)c1-c1c(C2Oc3cc(O)cc(O)c3CC2OC(=O)c2cc(O)c(O)c(O)c2)cc(O)c(O)c1O)c1cc(O)c(O)c(O)c1 (centres undefined), the Potency was inconclusive [inhibitor, partial curve]. CCN(CC)CCCNC(=O)CC1Oc2ccc(C)cc2NC1=O (centres undefined) was tested, and the Potency was inconclusive [inhibitor, partial curve]. With Cc1onc(-c2ccccc2)c1C(=O)OCC(=O)c1ccccc1 the Potency was inconclusive [inhibitor, partial curve, poor fit]. O=C(Nc1ccccc1F)C1CCCN(S(=O)(=O)c2cccc3cccnc23)C1 (centres undefined) was tested, and the “activity change, negative = inhibition” value was inactive: -2.78%. For Cc1cc(C)nc(SCc2ccc3nonc3c2)n1, the Potency was inconclusive [inhibitor, partial curve]. In the case of CCOC(=O)CSc1nc2c(c(-c3ccc(C)o3)c1C#N)CCCC2, the Potency is reported as inconclusive [inhibitor, single point]. In the case of Cc1cc(NCCN2CCOCC2)n2ncc(-c3ccc(Cl)cc3)c2n1, the “activity change, negative = inhibition” value is reported as inactive: -13.2%. In the case of O=C(N/N=C1/C[C@@H](O)[C@@H](O)[C@@H]2[C@@H]3C(=O)N(Cc4ccccc4)C(=O)[C@H]3CC[C@@H]12)OCc1ccccc1, the activity change, negative = inhibition is reported as inactive: 6.72% [at 11.4 µM].
Further: nearly all actives have a fitted effect of over 55% in size.
On the % scale 0 is the no-effect control and ±100 the full control effect; potency means the concentration at half of the fitted maximal effect; tags describe the fitted curve by direction and shape.
